# Out of some 410,000 compounds screened, about 850 (0.21%) were called active. This list was built around the results that the source calls inconclusive (neither active nor inactive); the mix of calls is not that of the screen. The call rests on the fitted dose curve; in most records, active means well fitted inhibition curve with a large enough effect; inconclusive means small, poorly fitted or top-dose-only effect, or another doubt; inactive means no such curve, though single readings can be large or run the other way. Potencies of inconclusive entries are left out as doubtful fits.
# Biological target: Glutaminase kidney isoform, mitochondrial (Homo sapiens) (UniProt O94925)
# Chain of UniProt O94925 (O94925 whole entry, looked up, canonical isoform): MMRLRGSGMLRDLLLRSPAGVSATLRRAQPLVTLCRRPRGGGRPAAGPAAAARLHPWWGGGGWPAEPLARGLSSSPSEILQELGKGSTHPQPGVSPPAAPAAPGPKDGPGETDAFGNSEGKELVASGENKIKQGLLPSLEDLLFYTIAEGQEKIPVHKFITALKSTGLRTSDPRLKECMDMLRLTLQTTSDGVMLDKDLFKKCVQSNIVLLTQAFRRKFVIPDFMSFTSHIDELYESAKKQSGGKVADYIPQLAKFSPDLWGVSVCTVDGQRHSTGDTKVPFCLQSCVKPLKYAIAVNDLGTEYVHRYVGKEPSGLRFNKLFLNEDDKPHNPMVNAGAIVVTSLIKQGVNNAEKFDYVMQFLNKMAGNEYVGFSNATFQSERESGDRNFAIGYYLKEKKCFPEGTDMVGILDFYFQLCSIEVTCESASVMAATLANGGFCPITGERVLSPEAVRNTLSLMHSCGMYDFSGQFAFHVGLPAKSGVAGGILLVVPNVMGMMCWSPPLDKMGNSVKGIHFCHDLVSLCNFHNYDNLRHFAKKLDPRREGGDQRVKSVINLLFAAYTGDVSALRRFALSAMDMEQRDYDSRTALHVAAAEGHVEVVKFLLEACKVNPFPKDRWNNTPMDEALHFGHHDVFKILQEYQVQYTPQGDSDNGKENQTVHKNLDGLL
# Test: qHTS for Inhibitors of Glutaminase (GLS)
# Conditions: GLS enzymatic activity, qHTS titration; series mostly up to 45.5 µM; activity change, negative = inhibition: at the top concentration
# From the text: Glutaminase (GLS) catalyzes the hydrolysis of glutamine into glutamate and ammonia. It plays a critical role in glutaminolysis, which is an important energy source for proliferating cells. It was shown that c-Myc, an oncogenic transcription factor known to regulate microRNAs and to stimulate cell proliferation, increases glutamine metabolism by stimulating the expression of GLS via direct suppression of miR23a and miR23b.
# GLS is also thought to play a pathogenic role on HAD using a human HIV-1 infected macrophage system. […] GLS inhibition limits glutamate release and provides neuroprotection against HIV-1 infected macrophages.
# The overall goal of this project is to identify small molecule inhibitors of GLS through quantitative high throughput screening (qHTS) of the MLSMR. A validated potent and selective inhibitor can be used as a tool molecule to further study the pharmacology of its target as well as explore its potential therapeutic application in cancer and inflammatory neurological disorders, such as HIV1-associated dementia (HAD) and multiple sclerosis.
# NIH Chemical Genomics Center [NCGC]
# NIH Molecular Libraries Probe Centers Network [MLPCN]
# Assay Submitter (PI): Barbara S. Slusher, Johns Hopkins University
# Three 3 uL of hKGA is dispensed into black well 1536-well plates in 45 mM KH2PO4 (pH 8.2), 0.02% Tween-20. Then 23 nL of compounds are added through pin tool transfer. To this, 1 uL of 1mM L-Glutamine and 1 uL of a solution of L-Glutamateoxidase, HRP, Amplex red are added. Plate is centrifuged for 25 sec before an initial fluorescence read is obtained on the ViewLux, after 30 min of RT incubation, the final read is taken on the ViewLux.
# On the % scale 0 is the no-effect control and ±100 the full control effect; potency means the concentration at half of the fitted maximal effect; tags describe the fitted curve by direction and shape.
SMILES,"activity change, negative = inhibition",Potency
c1coc(CNc2nc(-c3ccncc3)cs2)c1,inactive: 20.5%,
O=C(Cn1c(=S)[nH]c2ccccc21)c1ccccc1,inactive: 10.7%,
OC(CN1C2=NCCCN2c2ccccc21)c1ccc(Cl)cc1 (stereo unspecified),inactive: -4.53%,
CC(=O)NS(=O)(=O)c1ccc(N=c2ssc3c2-c2cc(C)c(C)cc2NC3(C)C)cc1,,"inconclusive [inhibitor, partial curve]"
CC(C)c1ccc(S(=O)(=O)c2ccc(NN)cc2)cc1,,"inconclusive [inhibitor, partial curve, poor fit]"
Cc1cccn2c(CN(C)CCC3CCCCO3)c(C(=O)N3CCCCC3)nc12 (stereo unspecified),inactive: 16.2%,
C=CCNC(=S)NNC(=O)c1cc(Cl)ccc1OC,,"inconclusive [inhibitor, partial curve, poor fit]"
O=C(CCn1cnc2ccccc2c1=O)NCc1ccccc1Cl,,"inconclusive [inhibitor, single point]"
Cn1c(=O)c(C(=O)CSc2nncs2)c(N)n(Cc2ccccc2)c1=O,,"inconclusive [inhibitor, single point]"
COc1cc(/C=N/Nc2ccc(C(F)(F)F)cn2)cc(OC)c1O,,"inconclusive [inhibitor, partial curve, poor fit]"
O=C(N/N=C(/CC(=O)c1cccs1)C(F)(F)F)c1ccc(O)cc1,,"inconclusive [inhibitor, single point]"
Nc1c(C(=O)O)ccc2c1C(=O)c1ccccc1C2=O,,"inconclusive [inhibitor, single point]"
CCOc1ccc(N2C(=O)CC(SCc3nc4ccccc4[nH]3)C2=O)cc1 (stereo unspecified),inactive: 0%,
COC(=O)c1sccc1N/N=C/c1ccc(OC)c(OC)c1OC,,"inconclusive [inhibitor, single point]"
Nc1ncnc2c1ncn2[C@@H]1O[C@H](C(=O)N2CCC[C@@H]2C(=O)OCc2ccccc2)[C@@H](O)[C@H]1O,inactive: 9.74%,
CCOc1ccc(N)cc1OC,,"inconclusive [inhibitor, single point]"
CCN(CC)CCNC(=O)C1c2ccccc2C(=O)N(CCOC)C1c1ccc(F)cc1 (stereo unspecified),inactive: 5.87%,
FC(F)(F)c1ccccc1Cc1c(-c2ccc(Cl)cc2)nc2ccc(Cl)cn12,inactive: 25.6%,
Cc1cc(C)nc(N/N=C/c2ccccc2OCC(=O)O)n1,,"inconclusive [inhibitor, single point]"
COc1ccccc1Cn1c(=S)[nH]c2cc(C(=O)N3CCCC3)ccc2c1=O,,"inconclusive [inhibitor, partial curve, poor fit]"
CCCNC(=O)CSc1c(CCC)cnc2c1c(=O)n(C)c(=O)n2C,,"inconclusive [inhibitor, single point]"
CCOc1ccc(-c2nnc(-c3ccncc3)o2)cc1,inactive: 42.7%,
CCCCOc1ccc(/C(O)=C2/C(=O)C(=O)N(CCN(C)C)C2c2ccc(O)c(OC)c2)cc1 (stereo unspecified),inactive: 3.63%,
O=C(CCCO)NNc1c2ccccc2nc2ccccc12,,"inconclusive [inhibitor, single point]"

SMILES,"activity change, negative = inhibition",Potency
Cc1ccnc(NC(=O)CCC(=O)N(CC(=O)NCc2ccccc2)c2ccc3c(c2)OCO3)c1,,"inconclusive [inhibitor, single point]"
Cc1ccc(NC(=O)CSc2nc(-c3cccs3)nc3cc(=O)[nH]n23)cc1C,,"inconclusive [inhibitor, single point]"
Cc1ccc2c(c1)N(C)/C(=C/c1cccc[n+]1C)S2,inactive: -1.7%,
CCc1oc(C(=O)O)cc1COC,,"inconclusive [inhibitor, partial curve, poor fit]"
CC(C)Oc1ccc(CCC(=O)NNC(=S)Nc2ccccc2)cc1,,"inconclusive [inhibitor, single point]"
O=C(CCC(=O)N/N=C/c1cc(Cl)cc(Cl)c1O)NCc1ccccc1,,"inconclusive [inhibitor, single point]"
O=C(c1ccc2c(c1)OCO2)C1CCCN(C(=O)NCc2ccccc2)C1 (stereo unspecified),,"inconclusive [inhibitor, single point]"
CCNC(=S)NNc1nncc2ccccc12,,"inconclusive [inhibitor, partial curve]"
O=C(NCc1ccco1)c1ccc(Cl)c(S(=O)(=O)N2CCCC2)c1,inactive: -11.3%,
CC(=O)Nc1ccc2nc(SCC(=O)O)sc2c1,inactive: -0.11%,
COc1cc2c(cc1OC)C(c1ccc(-c3cc(Cl)ccc3Cl)o1)=NCC2,,"inconclusive [inhibitor, single point]"
CCOc1cc(C2NC(=O)NC(C)=C2C(=O)OCC2CCCCC2)ccc1O (stereo unspecified),,"inconclusive [inhibitor, partial curve]"
S=C(Nc1ccccc1)N1N=C(c2cccs2)CC1c1cccs1 (stereo unspecified),,"inconclusive [inhibitor, partial curve, poor fit]"
COC(=O)/C=C\C(=O)Nc1cccc([N+](=O)[O-])c1,,"inconclusive [inhibitor, single point]"
CCCC(C)c1nnc(NC(=O)C2CC(=O)N(CCc3ccc(F)cc3)C2)s1 (stereo unspecified),,"inconclusive [inhibitor, partial curve, poor fit]"
Oc1cccc(/C=N/N=C/c2cccc(O)c2O)c1O,,active: 3.55 µM
COc1ccc2ccccc2c1/C=N/Nc1cccc(C(=O)O)c1,,active: 7.94 µM
S=c1[nH]nc(COc2ccccc2)n1/N=C/C=C/c1ccco1,,"inconclusive [inhibitor, partial curve]"
COc1ccc(-c2nc3cnccn3c2Nc2ccc(C)cc2)cc1,,"inconclusive [inhibitor, partial curve, poor fit]"
COc1cc(/C=N/n2c(C)nnc2C)cc(OC)c1OC,inactive: -4.39%,
O=C(CSc1ccsc1[N+](=O)[O-])Nc1cc(F)ccc1F,,"inconclusive [inhibitor, partial curve, poor fit]"
c1csc(-c2nnc(N3CCOCC3)c3ccccc23)c1,inactive: 16.5%,
Fc1ccccc1/C=N/n1c(-c2cccnc2)n[nH]c1=S,,"inconclusive [inhibitor, single point]"
COc1ccc(N2C(=O)CC(NNC(=O)c3ccco3)C2=O)cc1 (stereo unspecified),,"inconclusive [inhibitor, full curve, poor fit]"

SMILES,"activity change, negative = inhibition",Potency
COc1ccc(Cl)cc1NC(=O)CSC1=Nc2ccccc2C2=NC(CCC(=O)NCc3ccc(F)cc3)C(=O)N12 (stereo unspecified),,"inconclusive [inhibitor, single point]"
CCC(C)n1c(-c2cccc(S(=O)(=O)N(CC)CC)c2)n[nH]c1=S (stereo unspecified),inactive: 46.3%,
Cc1ccc(C(=O)N[C@@H](C)CN2C3=NC[C@H](C(C)C)N3C[C@H]2Cc2ccc(O)cc2)cc1Br,inactive: 12.8%,
O=C1CCCN1CCCNS(=O)(=O)c1cccs1,inactive: -3.16%,
COc1ccc(Cl)cc1-n1c(=S)sc2c(=O)[nH]c(SCC(=O)NCCC(C)C)nc21,,"inconclusive [inhibitor, single point]"
CCOC(=O)C1=C(O)/C(=C/c2ccc(-c3ccccc3C(=O)O)o2)SC1=Nc1ccc(C)cc1,,"inconclusive [inhibitor, single point]"
O=C(COC(=O)/C=C/c1cccc(C(F)(F)F)c1)Nc1cccc(S(=O)(=O)NC2=NCCC2)c1,inactive: -2.5%,
O=C(Nc1ccccn1)c1cccs1,,"inconclusive [inhibitor, single point]"
COc1ccc(-n2cc(C(=O)N(C)c3cc(C)ccc3OC)c3ccccc3c2=O)cc1,inactive: -6.22%,
CCN(CC)C(=S)SCC(=O)c1ccc(Br)cc1,inactive: 4.72%,
CCOC(=O)NC(=O)COC(=O)CNC(=O)c1cccc(OC)c1,,"inconclusive [inhibitor, single point]"
O=C1c2ccccc2S(=O)(=O)N1CC1CC(c2ccccc2Cl)=NO1 (stereo unspecified),inactive: -2.44%,
COc1ccc(N(CC(=O)NCCc2ccccc2)S(=O)(=O)c2ccc(OC)c(OC)c2)cc1,inactive: 0.994%,
COc1cc(OC)cc(/C(N)=N/O)c1,,"inconclusive [inhibitor, single point]"
O=C(O)c1cc(O)c2c(c1)[C@@H]([C@H]1c3cc(C(=O)O)cc(O)c3C(=O)c3c(O[C@@H]4O[C@H](CO)[C@@H](O)[C@H](O)[C@H]4O)cccc31)c1cccc(O[C@@H]3O[C@H](CO)[C@@H](O)[C@H](O)[C@H]3O)c1C2=O,,active: 1.78 µM
COc1ccc2ccccc2c1/C=N/Nc1ccc(Cl)c(C(=O)O)c1,,"inconclusive [inhibitor, single point]"
Cn1c(-c2ccccc2)cnc1NCc1cc2c(cc1[N+](=O)[O-])OCO2,,"inconclusive [inhibitor, partial curve, poor fit]"
Cc1ccc(NC(=O)CN(C)S(=O)(=O)c2ccc3c(c2)CCC(=O)N3)c(C)c1,inactive: -1.11%,
O=C(NCc1ccccc1)N1CCN(c2ccc(F)cc2)CC1,,"inconclusive [inhibitor, single point]"
CCc1ccc(-n2c(SCC(=O)NC(C)CC)nc3n[nH]c(C)c3c2=N)cc1 (stereo unspecified),,"inconclusive [inhibitor, single point]"
O=C(Nc1ccccc1)c1ccco1,,"inconclusive [inhibitor, single point]"
CNC(=O)c1sc(Nc2cc(C)ccc2C)nc1C,,"inconclusive [inhibitor, single point]"
N/C(=N\NC(=O)Nc1ccc(Cl)cc1)c1ccccn1,,"inconclusive [inhibitor, partial curve]"
